Measured values reported in PubChem BioAssay AID1159614 (National Center for Advancing Translational Sciences (NCATS), 2016).
In all, about 45,000 compounds went through this assay and about 65 (0.1%) were called active. Calls come from the whole dose curve; as a rule, active = well fitted activation curve with a large enough effect; inconclusive = small, poorly fitted or top-dose-only effect; inactive = no such curve, though single readings can be large or run the other way. Some of the results follow.

target: Galactocerebrosidase (Homo sapiens) (UniProt P54803); assay: A Novel Cell-Based Assay to Identify Small Molecules for B -Galactocerebrosidase; settings: 145M-Twi-hGALC-G270D cells (Twitcher mouse brain line with human GALC G270D), HMU-beta-Gal fluorescence, 48 h; series mostly up to 57.5 µM; activation: at the top concentration; note: 0% is about no effect; nearly all actives have a fitted effect of over 65% in size
UniProt P54803, sequence (P54803 whole entry, looked up): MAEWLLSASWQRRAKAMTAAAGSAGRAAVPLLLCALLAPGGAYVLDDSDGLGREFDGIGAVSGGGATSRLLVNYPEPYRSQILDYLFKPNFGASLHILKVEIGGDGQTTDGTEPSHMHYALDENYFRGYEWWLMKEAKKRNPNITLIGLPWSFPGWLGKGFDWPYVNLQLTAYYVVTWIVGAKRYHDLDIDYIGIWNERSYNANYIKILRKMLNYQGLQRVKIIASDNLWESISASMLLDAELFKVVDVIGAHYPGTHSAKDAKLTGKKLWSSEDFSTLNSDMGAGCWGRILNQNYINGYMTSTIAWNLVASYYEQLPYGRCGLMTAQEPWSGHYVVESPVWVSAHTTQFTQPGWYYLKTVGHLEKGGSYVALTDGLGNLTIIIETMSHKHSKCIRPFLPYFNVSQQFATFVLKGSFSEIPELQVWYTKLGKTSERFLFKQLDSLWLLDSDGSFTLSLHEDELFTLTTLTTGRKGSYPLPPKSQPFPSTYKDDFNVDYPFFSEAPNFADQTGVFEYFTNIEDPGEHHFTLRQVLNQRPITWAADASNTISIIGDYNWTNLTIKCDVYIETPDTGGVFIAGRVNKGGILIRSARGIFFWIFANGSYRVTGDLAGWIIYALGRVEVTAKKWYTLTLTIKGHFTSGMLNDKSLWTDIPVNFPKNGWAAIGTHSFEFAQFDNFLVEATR
Summary of the method: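 Fluorescence readout: HMU-β-gal cleavage by mutant GALC (0.1 mM final, citrate/phosphate pH 5.2 with 1 mg/mL taurocholate), stopped with carbonate/bicarbonate plus Triton X-100. Cells: murine Twitcher 145M-Twi expressing human G270D GALC; qHTS for activators.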

activation, inactive:
Cc1ccc(CNC(=O)Nc2cn(CC(C)C)c(=O)c3ccccc23)cc1 -25%
Cc1ccnc(NC(=O)c2c(C)oc3ncn(CC(C)C)c(=O)c23)c1 -16.9%
CCc1ccc(-c2nc(CN3CCCC(C(=O)NCc4ccc(C)cc4)C3)c(C)o2)cc1 (centres undefined) -10.1%
CN1CCN(N)CC1 -14.9%
CCn1cc2nc(SCC(=O)Nc3ccccc3F)n(Cc3ccc(C)cc3)c(=O)c2n1 -13.9%
COc1ccc(-c2cc3nc(C)c(CCC(=O)Nc4cccc(C(F)(F)F)c4)c(C)n3n2)c(OC)c1 -9.32%
Cc1nnc(SCc2ccccc2Cl)c2cc3sccc3n12 -1.09%
O=C(Nc1sc2c(c1C(=O)Nc1ccc(Cl)cc1)CCCC2)c1cccs1 -3.82%
Cc1ccc(C(=O)Nc2ccccc2C(=O)O)cc1S(=O)(=O)N1CCCCCC1 -12.1%
CCCCCOc1ccc(NC(=O)Cc2csc(C)n2)cc1 -6.65%
COCC(C)NC(=O)c1cnn2c(C(F)F)cc(-c3ccccc3)nc12 (centres undefined) -11.1%
CN(C(=O)Cn1cc(S(=O)(=O)N2CCN(c3ccccc3F)CC2)c2ccccc2c1=O)c1ccc(Cl)cc1 -13.6%
O=C(NCCCN1CCN(c2ccccc2F)CC1)c1cc2c(Cl)nc3ccccc3c2s1 3.25%
Cc1cc(C)c(NC(=O)CN2c3ccccc3S(=O)(=O)c3ccccc32)c(C)c1 -10.4%
Clc1ccc2nsnc2c1NC1=NCCN1 -12.6%
CCOc1ccc(NC(=O)c2cnn(-c3ccc(C)c(Cl)c3)c2C2CCNCC2)cc1 -13.2%
COc1cc(OC)c(NC(=O)C(NS(=O)(=O)c2cccc3nsnc23)c2ccccc2)cc1Cl (centres undefined) -21.4%
Cc1ccc(CN2COc3cc(C)c4c(oc(=O)c5ccccc54)c3C2)cc1 -2.5%
CN1CCN(CCCNC(=O)Cn2c(-c3cccs3)cc3cc(Cl)ccc32)CC1 -14.3%
CCOc1cc(C2NC(=O)c3c(sc4c3CCN(C)C4)N2)ccc1OC(=O)c1ccccc1Cl (centres undefined) -13%
COc1ccc(-c2[nH]c(-c3ccccc3)nc2SCC(=O)Nc2ccc3c(c2)OCCO3)cc1 -13.1%
Cc1ccc2[nH]c(C(=O)Nc3ccccc3)cc2c1 -9.51%
O=C(NC1CC(=O)N(c2ccc3c(c2)OCCO3)C1)c1c(F)cccc1Cl (centres undefined) -5.46%
O=C(NCCc1csc(-c2ccc(F)cc2)n1)c1cccs1 -12.7%
COc1ccc(NC(=O)Cn2c(=O)cc(C)c3c(C)nn(-c4cccc(Cl)c4C)c32)cc1OC -10.9%
COc1ccc(-c2noc(CSc3nnc(Cc4ccccc4)n3-c3ccccc3)n2)cc1OC -34.8%
CCOC(=O)c1cc(-c2ccccc2)n(CC(=O)NC2CCC(C)CC2)c1C (centres undefined) -17.5%
CCOC(=O)c1cnc2c(ccc3ccccc32)c1Nc1ccccc1OC -49.8%
Cc1ccc(S(=O)(=O)CCC(=O)Nc2ccc(Br)cc2C)cc1 2.76%
Cc1ccc(NC(=O)CSc2nc3ccccc3c3nc(CCc4c(C)n[nH]c4C)nn23)c(C)c1 -12%
Cc1ccc(-c2nn(-c3ccc(F)cc3F)c3c2cnc2c(F)cccc23)cc1 7.67%
COCCNc1oc(-c2ccc(COc3ccc(OC)cc3)o2)nc1C#N -33.6%
Cc1ccc2c(c1)c(=O)c(C(=O)c1ccc3c(c1)OCO3)cn2Cc1cccc(F)c1 -11.2%
Cc1ccc(C(=O)CSc2ncc3c(n2)-c2ccccc2N(Cc2ccc(Cl)cc2)S3(=O)=O)cc1 -7.29%
CCc1ccc2oc(-c3cccc(NC(=O)c4cc5ccccc5o4)c3)nc2c1 -2.31%
CCCc1nn2c(=O)cc(COC(=O)c3ccc(NC(=O)CCc4ccccc4)cc3)nc2s1 -15.6%
Cc1ccccc1C(=O)Nc1nc2nc(C)c(C)c(=O)n2[nH]1 -0.579%
Cc1nc2c(C(=O)O)cnn2c(C)c1Cc1ccccc1 -13.9%
COc1cccc(NC(=O)c2sc3nc4n(c(=O)c3c2C)CCC4)c1 -6.8%
Cc1cc2cc3c(C)cc(=O)oc3c(C)c2o1 -9.57%
CC(=O)Nc1c(I)cc(I)c(C(=O)O)c1I -15.2%
CCCCOc1ccc(CNC(=O)c2ccc(-c3nc(CN4CCc5ccccc54)c(C)o3)cc2)cc1 -15.2%
CC(C)(C)c1ccc(O)c(O)c1 -12.3% [at 114 µM]
CCc1nc2nc(C)cc(Nc3ccc(OC)cc3)n2n1 3.38%
COc1cccc(CN(Cc2ccco2)c2cnc(S(C)(=O)=O)nc2C(=O)Nc2cccc(Cl)c2C)c1 -14%
Cn1c(SCC(=O)N2CCCc3ccccc32)ncc(C(=O)Nc2ccc(Cl)cc2)c1=O -12.4%
CCS(=O)(=O)N1CCC(C(=O)NCCC(C)C)CC1 3.85%
Cc1ccc(-c2nnc(Nc3cccc(Cl)c3)c3ccccc23)cc1S(=O)(=O)NCC1CCCO1 (centres undefined) -11%
CSCCC(NS(=O)(=O)c1ccc2c(c1)oc(=O)n2C)C(=O)NCCc1ccc(C)cc1 (centres undefined) 1.72%
CN(C1CCCCC1)S(=O)(=O)c1ccc2c(c1)c(=O)c(C(=O)NCCc1ccc(Cl)cc1)cn2C -22.8%
O=C(c1cccc([N+](=O)[O-])c1)N1c2ncnn2C2(CCCCC2)[C@@H]2CCCC[C@@H]21 -12.4%
CC(=O)Nc1ccc(S(=O)(=O)NC2(C(F)(F)F)NC(=O)N(c3ccc(C)cc3)C2=O)cc1 (centres undefined) -16.5%
Cc1ccc(S(=O)(=O)c2cnc(SCC(=O)Nc3ccc4c(c3)OCCO4)[nH]c2=O)cc1 -17.4%
O=S(=O)(NCCSc1nnnn1-c1ccccc1)c1ccc(F)cc1 -20.9%
Cc1ccc(-c2onc(C)c2C)cc1S(=O)(=O)NCc1ccco1 -7.19%
COc1cccc(OCCCCn2c(-c3ccc(Cl)cc3)nc3ccccc3c2=O)c1 -6.82%
O=c1[nH]cnc2nc[nH]c12 -7.31%
CCN(CC)c1ccc(NC(=O)CSc2nnc(C)c(=O)[nH]2)cc1 -14%
CCCN(CCC)C(=O)CSc1nnc2cc(C)c3cc(C)cc(C)c3n12 -0.699%
COc1ccc2c(c1)c1c(c(=O)n(-c3ccccc3C)c(=O)n1CC(=O)NCc1ccc(C)cc1)n2C -3.5%
Cc1cc(Nc2ccc(C)c(C)c2)n2cnnc2n1 -4.64%
Cc1ccc(S(=O)(=O)c2cnc(SCC(=O)Nc3cc(C)cc(C)c3)nc2N)cc1 -2.99%
Cc1cccc(OCc2ccc(-c3nc(C#N)c(NCCN(C)C)o3)o2)c1 -8.87%
Cc1ccc2cccc(NC(=O)COc3ccccc3[N+](=O)[O-])c2n1 -16.8%
